# Publication PMC10668032
# Some of the results follow. At the low end of the ranking, values are background and their order means little.
# Target: SIX1 homeodomain (reference allele) (UniProt Q15475)
# Assay: universal protein binding microarray
# Conditions: Universal all-10-mer PBM (8x60K, AMADID 030236), 300 nM GST-tagged protein, Alexa Fluor 488 anti-GST; buffer, salt, pH and temperature not stated; high values mean tight binding; most listed sequences are background and not binding sites; double strand, one strand shown
row,Sequence,binding signal [E-score]
1,GACGCTTA,-0.0969
2,GGAGGCTA,0.0449
3,AAATTCAT,-0.125
4,CTCGGAGC,-0.0996
5,AATATGCG,0.171
6,AAGGCCTG,-0.366
7,CCGCTGAA,-0.156
8,CTAAGTAA,-0.201
9,ATTTGGTA,0.0623
10,CCTGGACC,-0.149
11,CAAGGGGA,0.165
12,AAAGATGA,0.00316
13,GAGTGCAA,-0.0602
14,AATAAGCT,-0.0744
15,ACGGGAGA,-0.128
16,GCCCTCGA,-0.0358
17,GGCCAACA,-0.18
18,CCAAACCC,0.0528
19,CTCATATC,0.31
20,CGCCAAAC,-0.214
21,CACTAAAA,-0.18
22,CAAGGAAA,-0.0985

row,Sequence,binding signal [E-score]
1,CTTGATCC,0.361
2,ACTTGCGA,-0.0991
3,TCCGTCAA,-0.119
4,GTCGTGAA,-0.133
5,ACGTCCTG,-0.152
6,AATGTTAC,-0.273
7,GTATAATA,0.365
8,ATAATTTC,-0.223
9,AAGTACTC,-0.0947
10,ACGATTTG,-0.168
11,AATAGGCT,-0.00546
12,CCGGATGA,0.275
13,ACGGTGTG,0.101
14,GAAGCGTC,-0.271
15,CCTTTCGC,-0.127
16,GCGGTTTA,-0.172
17,CAACGGTA,0.077
18,GAGGACTC,-0.117
19,ATCACGTA,0.214
20,CATAGGTC,0.0275
21,ACTTAATA,0.143
22,CTAAAGGA,-0.0595

row,Sequence,binding signal [E-score]
1,CAATGAGC,-0.0869
2,ATGCGAAT,-0.033
3,AGGCCCAA,-0.288
4,AACTGGGA,0.0601
5,CTTCATGC,-0.152
6,ACATAGAG,-0.138
7,AAAATGAC,-0.206
8,CTGGACCA,-0.16
9,GCTGTCGA,-0.138
10,ATAGTTCC,-0.0942
11,AGAGTGAC,-0.205
12,GAGGATAA,0.278
13,CGCGATTC,0.0204
14,CACCCAGG,0.0696
15,CACCGCGG,0.28
16,ATGCAGTG,0.153
17,CCGTTATA,0.117
18,AGACTAGG,-0.186
19,ATCAGGTG,0.25
20,CTTTTATA,0.0197
21,TAGGCCTA,0.00183
22,ACACTATA,0.132

row,Sequence,binding signal [E-score]
1,CACCAATG,0.00865
2,ACTCTGCG,-0.0297
3,ACACAGCG,-0.046
4,ACCCGAGC,0.11
5,ACAGAACG,-0.0976
6,AGCCTCCT,-0.0223
7,CGCGGACA,-0.162
8,GGAGAGCC,0.0514
9,CCGGAGTA,0.089
10,CGCCGCCA,-0.148
11,AAAGTTGT,-0.247
12,AAGTCCTA,-0.179
13,CGAATCGA,0.182
14,TTCCCCAA,-0.0359
15,CATGGGAG,0.0691
16,CAAAGCAA,-0.197
17,CCGTGCAC,0.00664
18,CTAAGGAG,0.0137
19,AAAAGCTC,-0.179
20,ATCTCTTA,0.208
21,ACAGCAAG,0.0276
22,CATCCGCC,0.237

row,Sequence,binding signal [E-score]
1,CGCGCCAG,-0.114
2,AAGGGGAC,-0.0872
3,GTTGGTTA,0.0201
4,ACGCACCA,-0.122
5,ACTAATAA,-0.068
6,CGTTCATA,-0.0851
7,CATCTTTC,-0.126
8,TCTCATCA,0.0739
9,GTACATTA,0.00899
10,ATTCATTA,0.0361
11,ACGATAGG,0.269
12,ATGGAACA,-0.155
13,ACGCTATG,-0.0891
14,GTCTGATA,0.294
15,AGATATGG,0.335
16,GCCTTCAC,-0.205
17,AGACGTCC,-0.0986
18,CCGGCTCA,0.256
19,GCTGAAGA,-0.189
20,AAATTCCC,-0.239
21,ATTCAGGC,0.0935
22,CATTGGGA,-0.15
